This note sets out measurements from a collection of fitness landscapes (doi:10.1038/s41467-024-54723-y).

The full ranking holds about 18,000 sequences; the median of “TetR repression strength (sort-seq, GFP reporter)” is about 0.23, and the highest 2% start at about 0.68. The list shows a part of the results.

UniProt P04483, sequence (P04483 whole entry): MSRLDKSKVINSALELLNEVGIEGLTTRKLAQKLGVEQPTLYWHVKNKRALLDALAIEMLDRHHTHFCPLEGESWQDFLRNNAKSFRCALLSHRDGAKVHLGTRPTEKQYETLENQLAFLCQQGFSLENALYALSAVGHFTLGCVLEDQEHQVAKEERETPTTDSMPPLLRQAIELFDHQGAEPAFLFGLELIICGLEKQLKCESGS

In this experiment the target is TetR (class B, Tn10) (UniProt P04483). The experiment can be described thus: TetR repression strength (sort-seq, GFP reporter) (relative to tetO2 = 1); higher = stronger repression. The settings on record: E. coli. The method in brief:
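E. coli SIG10-MAX carried a low-copy plasmid library with eight randomized operator positions between a constitutive promoter and sfGFP, with TetR constitutively expressed. Cells grew 5 h at 37 °C in LB with 50 µg/mL chloramphenicol, then 10^6 cells were FACS-sorted into 13 fluorescence bins, each Illumina-sequenced. Repression strength is the top bin index plus one minus the read-weighted mean bin, divided by the wild-type operator value. Three independent transformations; variants with ≥30 reads in all replicates and CV ≤0.5 were averaged.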
For the sequence TCCCGAGGAGTGCCTGAGA, the TetR repression strength turned out to be 0.207.
Consider TCCCCACGAGTTAGCGAGA, for which the TetR repression strength worked out at 0.227.
The same measure for TCCCAAACAGTAGGCGAGA: 0.331; for TCCCATATAGTTATTGAGA: 0.248.
Turning to TCCCCGGAAGTGTGCGAGA, the TetR repression strength turned out to be 0.201.
With TCCCCGTGAGTTGAAGAGA, the TetR repression strength worked out at 0.21.
TCCCGGAAAGTAGTTGAGA showed a TetR repression strength of 0.133.
As for TCCCGCGTAGTGTTAGAGA, the TetR repression strength is 0.309.
For the sequence TCCCTACGAGTTGTTGAGA, the TetR repression strength was determined as 0.46.
As for TCCCATCTAGTGCACGAGA, the figure is 0.337; as for TCCCTTAGAGTTGTCGAGA, 0.177; as for TCCCTGCTAGTGGAGGAGA, 1.14.
TCCCAACCAGTGTATGAGA came in with a TetR repression strength of 0.469.
As for TCCCTGCCAGTAATCGAGA, the figure is 0.313.
The sequence TCCCAGGGAGTCACTGAGA displayed a TetR repression strength of 0.22.
As for TCCCTGTTAGTAATGGAGA, the figure is 0.229; as for TCCCAGGAAGTACGGGAGA, 0.19.
As for TCCCGCTTAGTTGGTGAGA, the figure is 0.104; as for TCCCGGTAAGTACAGGAGA, 0.139; as for TCCCTCGTAGTTGAAGAGA, 0.157.
For TCCCTATCAGTAACTGAGA, the TetR repression strength stood at 0.474.
As for TCCCAGGGAGTCATGGAGA, the figure is 0.135; as for TCCCATTCAGTTGCCGAGA, 0.138; as for TCCCAAGTAGTATTGGAGA, 0.176.
Regarding TCCCAGGGAGTTGGGGAGA, the TetR repression strength amounted to 0.111.
Take TCCCGAGGAGTATCGGAGA: the TetR repression strength is 0.0809.
As for TCCCCACCAGTGGGAGAGA, the TetR repression strength was 0.192.
As for TCCCACAGAGTAGGCGAGA, the figure is 0.169; as for TCCCCGACAGTCAGGGAGA, 0.193.
TCCCTTGCAGTTTAGGAGA returned a TetR repression strength of 0.365.
On to TCCCAGGCAGTCTTAGAGA, for which the TetR repression strength amounted to 0.0273.
The sequence TCCCCCGTAGTTAACGAGA came in with a TetR repression strength of 0.49.
As for TCCCGGTAAGTCGCGGAGA, the figure is 0.0153; as for TCCCAAAGAGTTTGTGAGA, 0.0868.
TCCCGTGTAGTTGCGGAGA yielded a TetR repression strength of 0.159.
As for TCCCATGAAGTTTTGGAGA, the figure is 0.207; as for TCCCGCGGAGTAGGGGAGA, 0.238.
Regarding TCCCATGAAGTAGGTGAGA, the TetR repression strength was found to be 0.17.
In the case of TCCCGTAAAGTTCTTGAGA, the TetR repression strength is 0.0183.
On to TCCCCTCAAGTTGGGGAGA, for which the TetR repression strength was 0.292.
TCCCCGTCAGTAGTTGAGA: the TetR repression strength was found to be 0.264.
As for TCCCCCTGAGTCGTCGAGA, the TetR repression strength came to 0.255.
As for TCCCCCAGAGTTTTCGAGA, the TetR repression strength is 0.438.
As for TCCCGACAAGTTGACGAGA, the figure is 0.119.
Take TCCCCACCAGTAATCGAGA: the TetR repression strength amounted to 0.474.
As to TCCCGTCGAGTGGCAGAGA, the TetR repression strength is 0.125.
As for TCCCCCAGAGTAATGGAGA, the figure is 0.337; as for TCCCGACGAGTTGAGGAGA, 0.16.
As for TCCCCGCTAGTGCATGAGA, the figure is 0.48; as for TCCCGATGAGTGTTTGAGA, 0.433; as for TCCCGGTAAGTCGAGGAGA, 0.153.
The same measure for TCCCGCGCAGTGAGAGAGA: 0.137; for TCCCTCATAGTTCATGAGA: 0.0965; for TCCCTTGCAGTCAATGAGA: 0.251.
Sequence TCCCGGGCAGTAGTAGAGA displayed a TetR repression strength of 0.401.
As for TCCCGGGTAGTACTCGAGA, the figure is 0.0504.
TCCCGTCGAGTAGTTGAGA showed a TetR repression strength of 0.475.
TCCCCGCCAGTTATCGAGA had a TetR repression strength of 0.368.
The same measure for TCCCCAATAGTGCCCGAGA: 0.304; for TCCCGCAGAGTAGAGGAGA: 0.21; for TCCCTACTAGTGAGCGAGA: 0.306.
On to TCCCCCTGAGTGGTAGAGA, for which the TetR repression strength came to 0.242.
The sequence TCCCCTTCAGTCTCGGAGA showed a TetR repression strength of 0.104.
TCCCGGATAGTGTGCGAGA returned a TetR repression strength of 0.204.
In turn, TCCCTTCCAGTCGGGGAGA came in with a TetR repression strength of 0.207.
As for TCCCCCGAAGTGTGTGAGA, the figure is 0.0538.
TCCCCTACAGTGCCAGAGA displayed a TetR repression strength of 0.269.
The same measure for TCCCGTATAGTGGCAGAGA: 0.198.
The same measure for TCCCTCTCAGTAATAGAGA: 0.686.
In turn, TCCCGTTAAGTAGCGGAGA gave a TetR repression strength of 0.503.
TCCCGCCAAGTGAGTGAGA: the TetR repression strength stood at 0.25.
The same measure for TCCCCTAGAGTCAACGAGA: 0.368; for TCCCGGTCAGTGATCGAGA: 0.684; for TCCCACGGAGTAGCAGAGA: 0.0379.
The sequence TCCCGGTTAGTCTTGGAGA yielded a TetR repression strength of 0.317.
As for TCCCGATAAGTTGATGAGA, the figure is 0.19; as for TCCCGACAAGTGGCCGAGA, 0.258; as for TCCCCACAAGTACGTGAGA, 0.199.
The sequence TCCCGTGGAGTCTCGGAGA returned a TetR repression strength of 0.338.
The same measure for TCCCCTACAGTGACTGAGA: 0.305; for TCCCTAACAGTTTTCGAGA: 0.335.
As for TCCCAAAGAGTATATGAGA, the figure is 0.114; as for TCCCGTTTAGTGCGAGAGA, 0.217.
On to TCCCTGTGAGTGTGGGAGA, for which the TetR repression strength turned out to be 0.238.
In the case of TCCCATTCAGTTTGCGAGA, the TetR repression strength came to 0.243.
As for TCCCACGGAGTCGCGGAGA, the figure is 0.172.
The same measure for TCCCCAGTAGTTGGCGAGA: 0.0887; for TCCCTAACAGTGGAAGAGA: 0.299.
The same measure for TCCCAAAAAGTGAGCGAGA: 0.128.
For the sequence TCCCGGGAAGTTCGGGAGA, the TetR repression strength is 0.249.
The same measure for TCCCTTTTAGTAAGAGAGA: 0.277; for TCCCGCCCAGTTGGCGAGA: 0.179; for TCCCTTGAAGTGGCAGAGA: 0.107.
As for TCCCGAGCAGTGGCTGAGA, the figure is 0.347; as for TCCCTCTGAGTCACAGAGA, 0.529.
For the sequence TCCCTAGCAGTGCCAGAGA, the TetR repression strength is 0.637.
The same measure for TCCCGTGTAGTAGTAGAGA: 0.269; for TCCCTACGAGTGTCAGAGA: 0.194.
As for TCCCCCTGAGTCTAAGAGA, the figure is 0.278.
The same measure for TCCCCTTTAGTGGGAGAGA: 0.273; for TCCCGTGGAGTAGCGGAGA: 0.16.
As for TCCCGGGCAGTGATTGAGA, the TetR repression strength is 0.341.
